Assay results reported in patent publication US20250223331A1, “GLP-1/GIP DUAL-TARGETED POLYPEPTIDE AND FUSION PROTEIN AND APPLICATIONS THEREOF” (SUNSHINE LAKE PHARMA CO., LTD., priority 2021, published 2025).

T1: GIPR (UniProt P48546 22-466, limits assumed)
T1 sequence (looked up): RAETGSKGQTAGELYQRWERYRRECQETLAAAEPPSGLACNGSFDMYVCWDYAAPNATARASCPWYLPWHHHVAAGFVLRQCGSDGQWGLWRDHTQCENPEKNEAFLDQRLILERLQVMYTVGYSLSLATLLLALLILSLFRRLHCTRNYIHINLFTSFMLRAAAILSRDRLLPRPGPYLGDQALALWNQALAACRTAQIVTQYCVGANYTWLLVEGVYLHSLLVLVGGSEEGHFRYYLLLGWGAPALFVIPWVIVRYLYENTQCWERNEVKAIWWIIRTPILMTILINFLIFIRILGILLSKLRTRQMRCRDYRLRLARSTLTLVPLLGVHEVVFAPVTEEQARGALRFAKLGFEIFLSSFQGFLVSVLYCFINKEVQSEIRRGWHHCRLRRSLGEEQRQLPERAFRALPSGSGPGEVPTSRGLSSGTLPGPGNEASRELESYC


Tests used:
[1] = target: GLP-1R (UniProt P43220); test: cell-based or functional assay
[2] = target: T1, GIPR; test: cell-based or functional assay

| Binder | EC50, cAMP [1] [nM] | EC50, cAMP [2] [nM] |
| --- | --- | --- |
| HEC-G31 (Fc fusion) YGEGTFTSDYSIYLDKKAQRLFIEWLLAQGPSSGAPPPSGGGGSGGGGSGGGGSA[here human IgG4 Fc with S228P F234A L235A (EU numbers) without letters] | 2.56 | 2.85 |
| HEC-G32 (Fc fusion) YGQGTFTSDYSIYLDKKAQRDFVEWLLAQGPSSGAPPPSGGGGSGGGGSGGGGSA[here human IgG4 Fc with S228P F234A L235A (EU numbers) without letters] | 1.86 | 0.321 |
| HEC-G34 (Fc fusion) YGEGTFTSDYSIYLDKQAQRDFVEWLIAGGPSSGAPPPSGGGGSGGGGSGGGGSA[here human IgG4 Fc with S228P F234A L235A (EU numbers) without letters] | 0.354 | 0.275 |
| HEC-G35 (Fc fusion) YAEGTFTSDYSIYLDKLAQQEFIDWLKAGGPSSGAPPPSGGGGSGGGGSGGGGSA[here human IgG4 Fc with S228P F234A L235A (EU numbers) without letters] | 2.86 | 1.24 |
| HEC-G37 (Fc fusion) YAEGTFTSDYSIYLDKLAQQAFIEWLKAGGPSSGAPPPSGGGGSGGGGSGGGGSA[here human IgG4 Fc with S228P F234A L235A (EU numbers) without letters] | 0.745 | 0.563 |
| HEC-G38 (Fc fusion) YAEGTFTSDYSIYLDKLAQQAFIEWLLAGGPSSGAPPPSGGGGSGGGGSGGGGSA[here human IgG4 Fc with S228P F234A L235A (EU numbers) without letters] | 12.5 | 0.589 |
| HEC-G39 (Fc fusion) YAEGTFTSDYSIYLDKIAQQAFIEWLKAGGPSSGAPPPSGGGGSGGGGSGGGGSA[here human IgG4 Fc with S228P F234A L235A (EU numbers) without letters] | 0.675 | 1.34 |
| HEC-G40 (Fc fusion) HGEGTFTSDYSIYLDKIAQQAFIEWLLAGGPSSGAPPPSGGGGSGGGGSGGGGSA[here human IgG4 Fc with S228P F234A L235A (EU numbers) without letters] | 0.061 | 10.9 |
| HEC-G41 (Fc fusion) HGQGTFTSDYSIYLDKIAQQAFIEWLLAGGPSSGAPPPSGGGGSGGGGSGGGGSA[here human IgG4 Fc with S228P F234A L235A (EU numbers) without letters] | 1.57 | 6.02 |
| HEC-G44 (Fc fusion) YGEGTFTSDYSIALDKKAQRDFIEWLLAGGPSSGAPPPSGGGGSGGGGSGGGGSA[here human IgG4 Fc with S228P F234A L235A (EU numbers) without letters] | 2.55 | 0.171 |
| HEC-G46 (Fc fusion) YGEGTFTSDYSIYLDKKAQRDFIEWLIAGGPSSGAPPPSGGGGSGGGGSGGGGSA[here human IgG4 Fc with S228P F234A L235A (EU numbers) without letters] | 0.285 | 0.297 |
| HEC-G47 (Fc fusion) YGEGTFTSDYSIYLDKQAQRDFVEWLLAGGPSSGAPPPSGGGGSGGGGSGGGGSA[here human IgG4 Fc with S228P F234A L235A (EU numbers) without letters] | 0.995 | 0.651 |
| HEC-G48 (Fc fusion) YAEGTFTSDYSIYLDKIAQQAFIEWLLAGGPSSGAPPPSGGGGSGGGGSGGGGSA[here human IgG4 Fc with S228P F234A L235A (EU numbers) without letters] | 1.16 | 0.091 |
| HEC-G53 (Fc fusion) YGEGTFTSDYSIYLDKKAQQDFVEWLIAGGPSSGAPPPSGGGGSGGGGSGGGGSA[here human IgG4 Fc with S228P F234A L235A (EU numbers) without letters] | 0.772 | 0.518 |
| HEC-G54 (Fc fusion) YGEGTFTSDYSIYLDKQAQRAFIEWLIAGGPSSGAPPPSGGGGSGGGGSGGGGSA[here human IgG4 Fc with S228P F234A L235A (EU numbers) without letters] | 0.121 | 1.04 |
| HEC-G55 (Fc fusion) YGEGTFTSDYSIYLDKLAQQDFVEWLIAGGPSSGAPPPSGGGGSGGGGSGGGGSA[here human IgG4 Fc with S228P F234A L235A (EU numbers) without letters] | 3.98 | 0.278 |
| HEC-G56 (Fc fusion) YGEGTFTSDYSIALDKLAQQDFIEWLLAGGPSSGAPPPSGGGGSGGGGSGGGGSA[here human IgG4 Fc with S228P F234A L235A (EU numbers) without letters] |  | 0.154 |
| HEC-G57 (Fc fusion) YGEGTFTSDYSIALDKKAQQAFIEWLLAGGPSSGAPPPSGGGGSGGGGSGGGGSA[here human IgG4 Fc with S228P F234A L235A (EU numbers) without letters] | 17.5 | 9.43 |
| HEC-G59 (Fc fusion) YGEGTFTSDYSIYLDKLAQQAFIEWLKAGGPSSGAPPPSGGGGSGGGGSGGGGSA[here human IgG4 Fc with S228P F234A L235A (EU numbers) without letters] | 0.844 | 6.09 |
| HEC-G60 (Fc fusion) YGEGTFTSDYSIYLDKLAQQEFIDWLKAGGPSSGAPPPSGGGGSGGGGSGGGGSA[here human IgG4 Fc with S228P F234A L235A (EU numbers) without letters] | 8.75 | 3.05 |
| HEC-G61 (Fc fusion) YGEGTFTSDYSIYLDKIAQQAFIEWLLAGGPSSGAPPPSGGGGSGGGGSGGGGSA[here human IgG4 Fc with S228P F234A L235A (EU numbers) without letters] | 7.58 | 1.15 |
| HEC-G63 (Fc fusion) YGEGTFTSDYSIYLDKLAQRDFVEWLLAGGPSSGAPPPSGGGGSGGGGSGGGGSA[here human IgG4 Fc with S228P F234A L235A (EU numbers) without letters] | 39.1 | 17.7 |
| HEC-G64 (Fc fusion) YGEGTFTSDYSIYLDKKAQQDFVEWLLAGGPSSGAPPPSGGGGSGGGGSGGGGSA[here human IgG4 Fc with S228P F234A L235A (EU numbers) without letters] | 6.32 | 0.875 |
| HEC-G65 (Fc fusion) YGEGTFTSDYSIYLDKKAQQAFVEWLLAGGPSSGAPPPSGGGGSGGGGSGGGGSA[here human IgG4 Fc with S228P F234A L235A (EU numbers) without letters] | 1.58 | 3.78 |
| HEC-G66 (Fc fusion) YGEGTFTSDYSIYLDKLAQQAFVEWLLAGGPSSGAPPPSGGGGSGGGGSGGGGSA[here human IgG4 Fc with S228P F234A L235A (EU numbers) without letters] | 7.03 | 0.324 |
| HEC-G67 (Fc fusion) YSEGTFTSDYSIYLDKKAQRDFVEWLLAGGPSSGAPPPSGGGGSGGGGSGGGGSA[here human IgG4 Fc with S228P F234A L235A (EU numbers) without letters] | 1.14 | 0.485 |
| HEC-G68 (Fc fusion) YGEGTFTSDYSIYLDKKAQRDFVEWLVAGGPSSGAPPPSGGGGSGGGGSGGGGSA[here human IgG4 Fc with S228P F234A L235A (EU numbers) without letters] | 0.272 | 10.2 |
| HEC-G26 (Fc fusion) YGEGTFISDYSIYLDKKAQRDFVEWLLAQGPSSGAPPPSGGGGSGGGGSGGGGSA[here human IgG4 Fc with S228P F234A L235A (EU numbers) without letters] |  | 0.064 |
